Data published in the supplement of paper PMC12217912.
Some of the results follow. The full chains were built here from the parent and the listed change. Values near 0.05 are background.

B1: TEV protease; numbered along this chain (parent)
chain: MGESLFKGPRDYNPISSSICHLTNESDGHTTSLYGIGFGPFIITNKHLFRRNNGTLVVQSLHGVFKVKDTTTLQQHLVDGRDMIIIRMPKDFPPFPQKLKFREPQREERICLVTTNFQTKSMSSMVSDTSCTFPSGDGIFWKHWIQTKDGQCGSPLVSTRDGFIVGIHSASNFTNTNNYFTSVPKNFMELLTNQEAQQWVSGWRLNADSVLWGGHKVFMVKPEEPFQPVKEATQL

Variants of: B1
Experiment: raw area under fraction-flipped curve 0-4 h after induction (AUC4h, not background-subtracted), DNA-recorder readout of cleavage of the substrate (dimensionless); higher = more cleavage of the substrate by the protease variant
Conditions: temperature: 34 °C; time window: 0-4 h after rhamnose induction
Experimental: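 In vivo DNA recorder in E. coli TOP10(DE3) ΔrhaA at 34 °C. Each TEVp single-site mutant (parent TEVp 0) is paired with a single-site variant of the 7-mer TEVs (canonical ENLYFQ|S). The substrate sits between flexible linkers in a Bxb1-sfGFP-TEVs-SsrA fusion, so cleavage stabilises Bxb1 and speeds flipping of a recombination array, read by NGS. The value is the raw area under the fraction-flipped curve over 0-4 h after rhamnose induction (AUC4h), with ≥20 reads per time point. It is not background-subtracted; inactive controls average about 0.047.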
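Also: Bxb1 expression induced with 0.2% (w/v) L-rhamnose at OD600 near 0.5, cultures sampled hourly, flipped fraction per protease–substrate barcode pair counted by paired-end Illumina sequencing.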

| Variant | area with substrate ENLYFQA | area with substrate ENLYFQC | area with substrate ENLYFQG | area with substrate ENLYFQH | area with substrate ENLYFQI | area with substrate ENLYFQK | area with substrate ENLYFQL | area with substrate ENLYFQN | area with substrate ENLYFQQ | area with substrate ENLYFQR | area with substrate ENLYFQS | area with substrate ENLYFQT | area with substrate ENLYFQF | area with substrate ENLYFQV | area with substrate ENLYFQW | area with substrate ENLYFQY | area with substrate ENLYFQM | area with substrate ENLYFQP | area with substrate ENLYFQD | area with substrate ENLYFQE |
| --- | --- | --- | --- | --- | --- | --- | --- | --- | --- | --- | --- | --- | --- | --- | --- | --- | --- | --- | --- | --- |
| MGEDLFKGPRDYNPISSSICHLTNESDGHTTSLYGIGFGPFIITNKHLFRRNNGTLVVQSLHGVFKVKDTTTLQQHLVDGRDMIIIRMPKDFPPFPQKLKFREPQREERICLVTTNFQTKSMSSMVSDTSCTFPSGDGIFWKHWIQTKDGQCGSPLVSTRDGFIVGIHSASNFTNTNNYFTSVPKNFMELLTNQEAQQWVSGWRLNADSVLWGGHKVFMVKPEEPFQPVKEATQL [S4D] | 0.101 | 0.143 | 0.0983 | 0.0924 | 0.0612 | 0.056 | 0.0629 | 0.0602 | 0.103 | 0.0526 | 0.113 | 0.0645 | – | – | – | – | – | – | – | – |
| MGESEFKGPRDYNPISSSICHLTNESDGHTTSLYGIGFGPFIITNKHLFRRNNGTLVVQSLHGVFKVKDTTTLQQHLVDGRDMIIIRMPKDFPPFPQKLKFREPQREERICLVTTNFQTKSMSSMVSDTSCTFPSGDGIFWKHWIQTKDGQCGSPLVSTRDGFIVGIHSASNFTNTNNYFTSVPKNFMELLTNQEAQQWVSGWRLNADSVLWGGHKVFMVKPEEPFQPVKEATQL [L5E] | 0.0958 | 0.129 | – | 0.069 | 0.0592 | 0.062 | 0.0507 | 0.0852 | – | 0.0613 | 0.112 | 0.0596 | 0.0646 | 0.113 | 0.0627 | 0.0992 | – | – | – | – |
| MGESLFKGPKDYNPISSSICHLTNESDGHTTSLYGIGFGPFIITNKHLFRRNNGTLVVQSLHGVFKVKDTTTLQQHLVDGRDMIIIRMPKDFPPFPQKLKFREPQREERICLVTTNFQTKSMSSMVSDTSCTFPSGDGIFWKHWIQTKDGQCGSPLVSTRDGFIVGIHSASNFTNTNNYFTSVPKNFMELLTNQEAQQWVSGWRLNADSVLWGGHKVFMVKPEEPFQPVKEATQL [R10K] | 0.0715 | 0.103 | – | 0.0582 | 0.078 | – | 0.0516 | 0.0633 | – | 0.0479 | 0.0911 | 0.063 | – | 0.0467 | 0.062 | 0.0643 | 0.0763 | 0.0474 | – | – |
| MGESLFKGPSDYNPISSSICHLTNESDGHTTSLYGIGFGPFIITNKHLFRRNNGTLVVQSLHGVFKVKDTTTLQQHLVDGRDMIIIRMPKDFPPFPQKLKFREPQREERICLVTTNFQTKSMSSMVSDTSCTFPSGDGIFWKHWIQTKDGQCGSPLVSTRDGFIVGIHSASNFTNTNNYFTSVPKNFMELLTNQEAQQWVSGWRLNADSVLWGGHKVFMVKPEEPFQPVKEATQL [R10S] | 0.0877 | 0.0878 | 0.0983 | 0.0796 | – | 0.0753 | 0.0702 | 0.0679 | – | 0.0566 | 0.0966 | 0.0651 | 0.0717 | 0.0731 | 0.0655 | – | 0.102 | 0.0586 | – | – |
| MGESLFKGPRWYNPISSSICHLTNESDGHTTSLYGIGFGPFIITNKHLFRRNNGTLVVQSLHGVFKVKDTTTLQQHLVDGRDMIIIRMPKDFPPFPQKLKFREPQREERICLVTTNFQTKSMSSMVSDTSCTFPSGDGIFWKHWIQTKDGQCGSPLVSTRDGFIVGIHSASNFTNTNNYFTSVPKNFMELLTNQEAQQWVSGWRLNADSVLWGGHKVFMVKPEEPFQPVKEATQL [D11W] | 0.117 | 0.106 | 0.119 | 0.0948 | 0.0592 | – | 0.0696 | 0.0699 | – | 0.066 | 0.095 | 0.0696 | 0.0786 | – | 0.0617 | 0.0822 | – | 0.0649 | – | – |
| MGESLFKGPRDYSPISSSICHLTNESDGHTTSLYGIGFGPFIITNKHLFRRNNGTLVVQSLHGVFKVKDTTTLQQHLVDGRDMIIIRMPKDFPPFPQKLKFREPQREERICLVTTNFQTKSMSSMVSDTSCTFPSGDGIFWKHWIQTKDGQCGSPLVSTRDGFIVGIHSASNFTNTNNYFTSVPKNFMELLTNQEAQQWVSGWRLNADSVLWGGHKVFMVKPEEPFQPVKEATQL [N13S] | 0.088 | 0.101 | 0.153 | 0.0738 | 0.0639 | 0.0592 | 0.064 | 0.0615 | 0.0662 | 0.0525 | 0.0982 | 0.0708 | 0.0926 | 0.0515 | 0.0741 | 0.0693 | 0.072 | 0.0653 | 0.0684 | – |
| MGESLFKGPRDYTPISSSICHLTNESDGHTTSLYGIGFGPFIITNKHLFRRNNGTLVVQSLHGVFKVKDTTTLQQHLVDGRDMIIIRMPKDFPPFPQKLKFREPQREERICLVTTNFQTKSMSSMVSDTSCTFPSGDGIFWKHWIQTKDGQCGSPLVSTRDGFIVGIHSASNFTNTNNYFTSVPKNFMELLTNQEAQQWVSGWRLNADSVLWGGHKVFMVKPEEPFQPVKEATQL [N13T] | 0.129 | 0.131 | 0.0951 | 0.0912 | 0.0628 | – | – | – | – | 0.0345 | 0.102 | 0.0548 | – | 0.0685 | 0.0634 | 0.069 | 0.119 | – | – | 0.0921 |
| MGESLFKGPRDYVPISSSICHLTNESDGHTTSLYGIGFGPFIITNKHLFRRNNGTLVVQSLHGVFKVKDTTTLQQHLVDGRDMIIIRMPKDFPPFPQKLKFREPQREERICLVTTNFQTKSMSSMVSDTSCTFPSGDGIFWKHWIQTKDGQCGSPLVSTRDGFIVGIHSASNFTNTNNYFTSVPKNFMELLTNQEAQQWVSGWRLNADSVLWGGHKVFMVKPEEPFQPVKEATQL [N13V] | 0.119 | 0.119 | – | – | 0.0623 | 0.0621 | 0.0622 | – | 0.0641 | 0.0744 | 0.0957 | 0.0551 | – | 0.0526 | 0.0475 | – | 0.0425 | 0.0613 | – | 0.0686 |
| MGESLFKGPRDYWPISSSICHLTNESDGHTTSLYGIGFGPFIITNKHLFRRNNGTLVVQSLHGVFKVKDTTTLQQHLVDGRDMIIIRMPKDFPPFPQKLKFREPQREERICLVTTNFQTKSMSSMVSDTSCTFPSGDGIFWKHWIQTKDGQCGSPLVSTRDGFIVGIHSASNFTNTNNYFTSVPKNFMELLTNQEAQQWVSGWRLNADSVLWGGHKVFMVKPEEPFQPVKEATQL [N13W] | 0.108 | 0.103 | 0.0726 | 0.0782 | 0.0632 | 0.0665 | 0.0688 | 0.0667 | 0.0625 | 0.0648 | 0.09 | 0.0508 | – | 0.0659 | 0.064 | – | 0.0814 | 0.0545 | 0.0732 | 0.0513 |
